Laboratory results as given in PubChem BioAssay AID493208 (National Center for Advancing Translational Sciences (NCATS), 2011).
Out of some 44,000 compounds screened, about 340 (0.77%) were called active. Roughly 5% stayed inconclusive and do not appear here. Calls come from the whole dose curve; as a rule, active = well fitted inhibition curve with a large enough effect; inconclusive = small, poorly fitted or top-dose-only effect; inactive = flat fitted curve, though single readings scatter. This is one part of the list.

Experiment: Acumen qHTS Assay for Inhibitors of the mTORC1 Signaling Pathway in MEF (Tsc2-/-, p53-/-) Cells: Sytravon;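 note: plate controls were DMSO for no effect and rapamycin for full effect; nearly all actives have a fitted effect of over 50% in size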
Conditions: phospho-rpS6 immunofluorescence/PI, 24 h; series mostly up to 38.3 µM; activity change, negative = inhibition: at the top concentration
How it was run: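 Immunofluorescence of rpS6 phosphorylation in Tsc2-/-, p53-/- MEFs after 24 h compound exposure, normalized to propidium iodide signal. Activity is expressed as % positive cells, thresholded with 7.5 nM rapamycin.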

Activity change, negative = inhibition, inactive:
Cn1cnc(S(=O)(=O)N2CCC(C(=O)N3CCN(c4cccc(C(F)(F)F)c4)CC3)CC2)c1 13%
COc1ccc(NC(=O)CSc2nc(-c3ccccc3)nc3cc(=O)[nH]n23)cc1 6.45%
CSc1ncc(C(=O)Nc2ccccc2C(=O)c2ccccc2)c(C)n1 0%
CCOC(=O)c1cnc2c(OC)cccc2c1Nc1cccc(O)c1 -14.8%
CCN(CC)c1nn2c(=O)c(C(=O)NCc3cccc(C)c3)cnc2s1 4.46%
COc1ccc(Cn2c(SCc3ccc(C(=O)NCCc4ccccc4)cc3)nc3cccnc32)cc1 -0.951%
Cn1c(=O)n(C/C=C/c2ccccc2)c(=O)c2c1nc1n2CCN1c1ccc(Cl)cc1 3.94%
CCOC(=O)c1[nH]c(C)c(CCC(=O)NCc2ccccc2C)c1C 0%
CCn1cc(S(=O)(=O)c2ccc(C)cc2)c(=O)c2cc(F)c(N3CCCCCC3)cc21 -5.3%
Cn1nc(-c2ccccc2F)c2cc(C(=O)N3CCN(c4ccc(F)cc4)CC3)sc21 1.39%
Cc1nn(C(=O)c2cccc(F)c2)c(C)c1S(=O)(=O)N1CCCCCC1 3.5%
CCC(C)NC(=O)Cn1c(=O)n(Cc2ccc(C(=O)NCc3ccccc3OC)cc2)c(=O)c2ccccc21 (stereo unspecified) -7%
CCCN1CCN(CCCNC(=O)Cn2c(-c3cccs3)cc3ccccc32)CC1 1.28%
Cc1ccc(NC(=O)CSc2ncnc3c2sc2ccccc23)cc1C 0%
Cc1cccc(N2CCN(S(=O)(=O)c3ccc(F)c(C(=O)Nc4ccc(C(C)C)cc4)c3)CC2)c1C 2.42%
Cc1ccc(C)c(NC(=O)CSc2nc(=O)n(Cc3ccccn3)c3c2CCC3)c1 3.32%
COc1ccc(OC)c(Nc2ncnc3c2cnn3-c2ccc(C)cc2)c1 1.25%
Cc1cc(C)cc(NS(=O)(=O)c2ccc3[nH]cc(C(=O)N4CCCCCC4)c(=O)c3c2)c1 -11.1%
COc1ccc(-c2noc(CN3CCN(c4cccc(Cl)c4)CC3)n2)cc1 -5.96%
O=C(C1CCC1)N1CCCc2cc(S(=O)(=O)Nc3ccc(F)cc3)ccc21 -1.91%
CCOc1ccc(CC(=O)NC2CC(=O)N(c3ccc(C)c(C)c3)C2)cc1 (stereo unspecified) 1.19%
C#CC(C)(CC)NC(=O)c1cc2c(n(-c3ccc(Cl)cc3)c1=O)CC(C)(C)CC2=O (stereo unspecified) -0.367%
COCCn1c(C)cc(O)c(C(c2ccc(C)cc2)N2CCCCC2)c1=O (stereo unspecified) 10.7%
CC(=O)N1c2ccccc2C(=O)C1N1CCN(c2cccc(C(F)(F)F)c2)CC1 (stereo unspecified) -2.7%
CC(=O)N1CCc2cc(Br)cc(S(=O)(=O)N3CCN(c4cc(C)ccc4C)CC3)c21 2.65%
Cn1cc(-c2cc3n(n2)CCC(=O)N3CC(=O)O)c2ccccc21 -1.71%
Cc1ccccc1OCC(=O)N(Cc1ccc(N(C)C)cc1)CC1CCCO1 (stereo unspecified) 4.64%
OCc1nc2ccccc2n1Cc1c(F)cccc1Cl -0.179%
Cc1cccc(CNC(=O)CCCN2C(=O)CCn3nc(-c4cn(C)c5ccccc45)cc32)c1 0.424%
CCN(CC)c1ccc(NC(=O)c2cc(S(=O)(=O)N3CCc4ccccc43)cn2C)c(C)c1 7.56%
CCN1CCN(c2c(S(=O)(=O)c3ccccc3)cnc3ccc(Cl)cc23)CC1 1.72%
Cc1ccc(OCC(=O)OCc2cc(=O)n3nc(-c4cccs4)sc3n2)cc1 -14%
COc1cccc(NC(=O)C2CCCN(c3nnc(-n4c(C)ccc4C)s3)C2)c1 (stereo unspecified) -26.9%
COc1ccccc1CNC(=O)CCCn1nc(C)c2sc3ccccc3c2c1=O 4.43%
Cc1ccccc1OCC(=O)Nc1ccc2nc(SCC(=O)N(C)c3ccccc3)sc2c1 -1.06%
CC(C)(C)OC(=O)N1CCC(c2c(C(=O)N3CCN(c4ccc(Cl)cc4)CC3)cnn2-c2ccc(F)cc2F)CC1 -2.75%
COc1ccc(Cl)cc1NC(=O)c1cc2ccc3ccc(C)[nH]c3c2n1 -5.32%
Cn1cc(S(=O)(=O)c2ccc(Cl)cc2)c(=O)c2cc(F)c(N3CCCC3)cc21 0.0361%
O=C(c1cc(-c2ccc(Cl)cc2)on1)N(Cc1cccc(F)c1)Cc1ccco1 -1.88%
Cn1c(=O)c2nc(SCC(=O)Nc3cc(Cl)cc(Cl)c3)n(C)c2n(C)c1=O -2.19%
Cc1nc2sccn2c(=O)c1S(=O)(=O)NCc1ccc(F)cc1 1.04%
CCc1ccc(NC(=O)CSc2c(C)cnc3c2c(=O)n(C)c(=O)n3C)cc1 3.96%
Cc1ccc(Cn2c(CNS(=O)(=O)c3ccc(C(C)(C)C)cc3)nc3cccnc32)cc1 -0.0889%
COc1ccc(-c2cc(C(=O)Nc3ccc4c(c3)OCO4)no2)cc1OC -4.04%
COc1cc(NC(=O)c2cc(-c3cccs3)on2)c(OC)cc1Cl 1.54%
COc1ccc(CNc2nc(-c3ccco3)nn2C(=O)c2ccccc2Cl)cc1 -3.71%
COc1ccc(NC(=O)C(=O)NCCc2ccc(OC)c(OC)c2)c(OC)c1 1.01%
Cc1c(NC(=O)c2cc(-c3ccc(O)cc3)on2)c(=O)n(-c2ccccc2)n1C 3.8%
COc1ccccc1CNc1nc2ccccc2c2nc(-c3cccnc3)nn12 -1.76%
O=C(COc1ccccc1Cl)OCc1cc(=O)n2nc(C3CC3)sc2n1 -6.99%
COCCCNC(=O)c1cnn(-c2ccccc2Cl)c1C1CCN(C(=O)OC(C)(C)C)CC1 -1.21%
COc1ccc(CNC(=O)C2CCN(C(=O)c3ccc(-n4ccc5ccccc54)s3)CC2)cc1 4.23%
COc1ccc(CCNC(=O)c2cccc(-n3c(C)nc4cccnc43)c2)cc1OC -9.11%
COc1ccc(-c2cc3nc(-c4ccc(Br)cc4)cc(C(F)(F)F)n3n2)cc1 0.625%
COC(=O)c1ccc(NC(=O)CSc2cn(CC(=O)N3CCCCCC3)c3ccccc23)cc1 -23.4%
Cc1nn(-c2nc(-c3ccc(F)cc3)cc(C(F)(F)F)n2)c(C)c1Br -1.44%
COc1cccc(C(=O)Nc2ccccc2C(=O)OCc2cc(=O)n3c(C)csc3n2)c1 0%
COc1ccc(NC(=O)Cn2c(C)cc3ccccc3c2=O)c(OC)c1 1.56%
COC(=O)c1cc(C)nc2c1c(=O)nc(SCc1cccc(C)c1)n2C1CC1 3.36%
CCOC(=O)c1ccccc1NC(=O)Nc1cc2c(cc1N1CCCCC1)n(C)c(=O)n2C -7.88%
Cc1nn(-c2ccc(F)cc2)c(-n2cccc2)c1C(=O)NCCCN1CCN(c2ccccc2F)CC1 -14%
